According to PubChem BioAssay AID1508642 (National Center for Advancing Translational Sciences (NCATS), 2021):
About 200 (0.47%) of roughly 43,000 compounds were called active. Inconclusive results (about 12%) are left out. Calls follow the shape of the dose curve; as a rule, active = well fitted cell-killing curve with a large enough effect; inconclusive = small, poorly fitted or top-dose-only effect, or effect the other way; inactive = flat fitted curve, though single readings scatter. The list shows a part of the results.

Assay: Cell viability qHTS assay in S16 Pmp22-F2sN cells; also: nearly all actives have a fitted effect of over 65% in size
Conditions: S16 Pmp22-F2sN Schwann cells (luciferase reporters placed in the Pmp22 gene) viability, CellTiter-Glo, 24 h; series mostly up to 57.5 µM; activity change, negative = cytotoxicity: at the top concentration
Summary of the method: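 Rat S16 Schwann reporter line, 24 h treatment with library compounds delivered at 23 nL per well. Cell viability by CellTiter-Glo luminescence.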
% is scaled to controls: 0 for no effect and ±100 for the full control effect.

Structure (SMILES)	activity change, negative = cytotoxicity
COc1ccc(OC)c(CNC(=O)Cn2nc(C)c3nn(-c4ccc(Cl)cc4)c(C)c3c2=O)c1	inactive: -3.5%
COc1ccc(/C=C/C(=O)Nc2nc3n(n2)C(c2ccccc2)C=C(c2ccc(Cl)cc2)N3)cc1 (stereo not given)	inactive: 4.26%
COc1ccc(CNC(=O)CCNS(=O)(=O)c2cccc3nsnc23)cc1	inactive: 22.8%
Fc1ccc(-n2ncc3c(N4CCC(Cc5ccccc5)CC4)ncnc32)cc1	inactive: -2.53%
CCOc1ccccc1CNC(=O)c1ccc(NC(=O)N2CCSc3ncccc32)cc1	inactive: -8.57%
Clc1ccc(N2CCN(c3ncnc4c3cnn4-c3ccccc3)CC2)cc1Cl	inactive: 8.69%
COc1ccc(NC(=O)c2cc(S(=O)(=O)N3CCCCCC3)cn2C)cc1Cl	inactive: -3.32%
CCc1ccccc1NC(=O)Nc1nnc(N(C)Cc2ccccc2)s1	inactive: -2.27%
O=C(Cn1cnc2c(oc3ccccc32)c1=O)Nc1ccc(OC(F)(F)F)cc1	inactive: -4.57%
O=C(Nc1cccc(Cl)c1)N1CCC(CN2CCOCC2)CC1	inactive: 3.44%
O=C(CN1C(=O)CC(c2ccco2)Sc2ccccc21)Nc1ccc(C(F)(F)F)cc1 (stereo not given)	inactive: 24.7%
COc1ccc(N(Cc2cccs2)C(=O)c2ccc(C(C)(C)C)cc2)cc1	inactive: -23.5%
COc1cc2[nH]c(=O)n(Cc3ccc(C(=O)N4CCN(c5cc(Cl)ccc5C)CC4)cc3)c(=O)c2cc1OC	inactive: -9.2%
O=C(NCC(c1ccc2c(c1)OCO2)N1CCOCC1)C(=O)Nc1ccc(F)cc1F (stereo not given)	inactive: -0.861%
COC(=O)C1CCN(CC(=O)Nc2cc(C)c3c(=O)oc4ccccc4c3n2)CC1	inactive: 4.89%
O=C(Nc1nnc(S(=O)(=O)N2CCCc3ccccc32)s1)c1cccc(F)c1	inactive: -17.1%
COc1ccc(N(C(=O)c2cccc(C)c2)S(=O)(=O)c2ccc(C)cc2)cc1	inactive: 1.76%
Cc1cc(C)c(NC(=O)Cn2ccn(-c3cccc(Cl)c3)c(=O)c2=O)c(C)c1	inactive: -0.195%
CCOC(=O)c1ccc(NC(=O)c2c(C)nn(-c3ccc(F)cc3)c2-n2cccc2)cc1	inactive: 24.4%
Cc1ccc2c(c1)N(C(=O)C1CCN(S(=O)(=O)c3c(C)noc3/C=C/c3ccccc3F)CC1)CCO2	inactive: 6.61%

Structure (SMILES)	activity change, negative = cytotoxicity
CCn1c(SCc2ccc(F)cc2Cl)nnc1-c1nonc1NC(C)=O	inactive: -11.8%
Cc1cccc(CCNC(=O)c2cnc3c(C)cccn3c2=O)c1	inactive: 13.7%
CC(C)(C)c1ccc(S(=O)(=O)c2cn(CC(=O)Nc3ccccc3)c3ccccc3c2=O)cc1	inactive: 3.9%
Cc1ccc(CNC(=O)c2ccc3c(c2)N(Cc2ccccc2)C(=O)c2ccccc2S3(=O)=O)cc1	inactive: 8.05%
Cc1c(C(=O)Nc2ccc(F)c(Cl)c2)oc2ccc(S(=O)(=O)N(C)C3CCCCC3)cc12	inactive: 3.88%
Cc1ccc(-n2ncc(C(=O)Nc3ccc4c(c3)OCO4)c2C2CCN(C(=O)OC(C)(C)C)CC2)c(C)c1	inactive: -8.09%
COc1cc(-c2noc(-c3ccc(NCc4ccco4)c([N+](=O)[O-])c3)n2)cc(OC)c1OC	inactive: 4.3%
CCCCN(CC)C(=O)c1cc2c(=O)n3ccccc3nc2n1C	inactive: 17.5%
Cc1nn(C)c2c1c(C(F)(F)F)cc(=O)n2CC(=O)N1CCCCC1C (stereo not given)	inactive: -3.46%
CCOC(=O)c1nc(Nc2ccccc2OC)c2ccccc2n1	inactive: 10.3%
Cc1cn2c(=O)cc(COc3ccc(NC(=O)c4ccccc4C)cc3)nc2s1	inactive: 21.4%
O=C(Nc1ccc(F)cc1F)C1CCN(S(=O)(=O)c2ccc3[nH]c(=O)ccc3c2)CC1	inactive: 14.5%
CCc1ccc(NC(=O)Cn2nnc(C(=O)NCc3ccc(C)cc3)c2N)cc1	inactive: -0.0922%
CC(=O)c1ccc(N2C(=O)N(Cc3ccccc3C#N)c3ccccc3S2(=O)=O)cc1	inactive: 5.29%
CCOc1ccc(C(=O)NCC(c2ccc3c(c2)OCO3)N2CCOCC2)cc1 (stereo not given)	inactive: 3.6%
CCc1ccc(OCc2nc(-c3ccc(OC)c(OC)c3)no2)c(Br)c1	inactive: -4.95%
COc1cc(NC(=O)CCc2nc3cccnc3n2Cc2cccs2)cc(OC)c1OC	inactive: 2.98%
CC1(C(=O)NC2CCCCC2)Cc2ccccc2C(=O)N1Cc1ccccc1Cl (stereo not given)	inactive: -0.706%
O=C(CCc1nc2cccnc2n1-c1ccccc1)Nc1ccc(Cl)c(Cl)c1	inactive: 0.168%
COc1ccc(Nc2c(-c3ccc(N4CCOCC4)cc3)nc3ncccn23)cc1OC	inactive: -3.03%

Structure (SMILES)	activity change, negative = cytotoxicity
CC(C)c1cnc2c(c1SCC(=O)N1CCCCC1)c(=O)n(C)c(=O)n2C	inactive: -1.32%
CCOc1cc(CN2CCN(S(=O)(=O)c3ccc(C)cc3)CC2)ccc1OC	inactive: -3.66%
O=C(Nc1nnc(S(=O)(=O)N2CCOCC2)s1)c1ccccc1F	inactive: -19.2%
Cc1ccc(NC(=O)C(C)Sc2nc(-c3ccccc3)c(C#N)c(=O)[nH]2)c(C)c1 (stereo not given)	inactive: 1.3%
O=c1c(N2CCc3ccccc3C2)csc2ccc(Cl)cc12	inactive: 7.86%
CC(C)Cc1nn2c(=O)cc(COC(=O)c3ccc(NC(=O)CCc4ccccc4)cc3)nc2s1	inactive: 12.6%
CCc1ccc2c(c1)NC(c1ccc(C)cc1)=NC(c1cccs1)=N2	inactive: 2.58%
CCOC(=O)N1CCc2c(sc3c2c(=O)n(Cc2ccccc2)c(=O)n3CC(=O)Nc2ccc(C)cc2C)C1	inactive: -6.73%
CCc1nc(-c2cc(S(=O)(=O)N3CCN(c4ccccc4F)CC3)ccc2OC)no1	inactive: 4.72%
O=C(Cn1c(=O)c(C(F)(F)F)nc2ccccc21)Nc1cccc(Br)c1	inactive: 17.7%
COc1ccc(CCNC(=O)c2c(C)oc3ncnc(N4CCOCC4)c23)c(OC)c1	inactive: 0.679%
Cc1ccc(S(=O)(=O)Nc2cc3c(cc2C)n(C)c(=O)c(=O)n3C)c(C)c1	inactive: 2.89%
Cc1cc(C)cc(Nc2cc(C(=O)NC3CCC(C)CC3)c3ccccc3n2)c1 (stereo not given)	inactive: 12.8%
Cc1ccc(CNC(=O)C2CCCN(S(=O)(=O)c3cn(C)cn3)C2)cc1 (stereo not given)	inactive: 1.22%
O=C(NCCc1ccccc1)c1ccc(CS(=O)(=O)Cc2ccccc2Cl)o1	inactive: -0.19%
Cc1cc(=O)n(CC(=O)NCc2ccc(OC(C)C)cc2)c2c1c(C)nn2-c1cccc(F)c1	inactive: 4.43%
C=CCc1cccc2cc(C(=O)NCCc3c(C)[nH]c4c(C)cccc34)c(=O)oc12	inactive: 2.17%
CCN(CC)c1ccc(NC(=O)CCc2nc3cccnc3n2Cc2cccs2)c(C)c1	inactive: -13.7%
O=C(NCC(c1ccc2c(c1)OCO2)N1CCOCC1)C(=O)Nc1ccccc1 (stereo not given)	inactive: 0.587%
NS(=O)(=O)c1ccc(CCNC(=O)Cn2c(-c3cccs3)cc3ccccc32)cc1	inactive: -26.1%
